PubChem BioAssay AID488969 (Vanderbilt High Throughput Screening Facility, 2010)
The full ranking holds about 110,000 compounds; the median of “z-score” is about -0.1, and the highest 2% start at about 2. The list shows a part of the results. Calls of active or inactive are those of the source.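 The calls were made as follows: active = z-score in the third read window above 3 or below -3; inactive = the rest.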

The molecules below were run against Metabotropic glutamate receptor 8 (Rattus norvegicus) (UniProt P70579) (assay: mGluR8 Gi/Go-coupled signaling modulation – cell-based, rat, thallium flux, HTS, primary screen (AID 488969)). Conditions: HEK293 rat mGluR8, GIRK (G protein-gated inwardly rectifying potassium channel) thallium flux, FluoZin2; at 10 µM; stronger effect = higher value; submaximal glutamate (EC20) added with thallium.
UniProt P70579, sequence (P70579 whole entry, looked up): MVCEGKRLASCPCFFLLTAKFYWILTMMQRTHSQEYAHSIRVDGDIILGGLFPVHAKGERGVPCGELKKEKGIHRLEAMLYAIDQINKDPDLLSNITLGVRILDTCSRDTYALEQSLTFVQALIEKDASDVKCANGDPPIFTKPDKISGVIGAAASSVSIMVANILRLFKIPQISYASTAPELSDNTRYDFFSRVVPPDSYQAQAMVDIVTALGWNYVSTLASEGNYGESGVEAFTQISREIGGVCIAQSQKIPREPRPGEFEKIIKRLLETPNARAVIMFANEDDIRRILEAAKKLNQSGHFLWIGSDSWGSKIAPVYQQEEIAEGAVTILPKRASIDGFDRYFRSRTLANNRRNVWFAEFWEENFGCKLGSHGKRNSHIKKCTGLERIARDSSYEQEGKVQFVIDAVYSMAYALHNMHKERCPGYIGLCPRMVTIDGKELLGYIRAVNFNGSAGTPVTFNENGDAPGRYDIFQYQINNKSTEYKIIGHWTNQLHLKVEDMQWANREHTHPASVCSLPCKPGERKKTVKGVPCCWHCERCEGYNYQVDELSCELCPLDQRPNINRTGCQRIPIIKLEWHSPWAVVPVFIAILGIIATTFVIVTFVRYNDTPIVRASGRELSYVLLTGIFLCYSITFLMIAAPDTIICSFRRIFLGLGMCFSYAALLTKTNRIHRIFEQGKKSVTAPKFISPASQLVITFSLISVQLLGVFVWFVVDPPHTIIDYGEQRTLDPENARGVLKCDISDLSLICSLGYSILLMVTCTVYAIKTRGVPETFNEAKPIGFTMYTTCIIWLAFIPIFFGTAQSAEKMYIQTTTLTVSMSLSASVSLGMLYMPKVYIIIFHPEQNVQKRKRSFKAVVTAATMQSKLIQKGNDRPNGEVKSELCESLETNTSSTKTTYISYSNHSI

| SMILES | z-score |
| --- | --- |
| N=P(N1CCOCC1)(N1CCOCC1)C12CC3CC(CC(C3)C1)C2 | 0.173 |
| O=S(=O)(NCCCO)c1ccc2c(c1)Cc1cc(S(=O)(=O)NCCCO)ccc1-2 | -0.0412 |
| Cc1ccc(S(=O)(=O)N2CCN(CC(=O)N/N=C\c3cccnc3)CC2)cc1 | -0.154 |
| Cc1ccc(NC(=O)CSc2nnc(-c3ccc(S(=O)(=O)N4CCOCC4)cc3)n2C)cc1 | -0.033 |
| O=C(CSc1nc(C2CCCCC2)n(-c2ccccc2)n1)NCCN1C(=O)CSC1=O | 0.242 |
| CCc1ccc(/C=C2\SC(=S)N(CCCC(=O)Nc3ccccn3)C2=O)cc1 | -0.092 |
| C=CCNC(=O)C(C(=O)OCC)C1CCCCC1 (centres undefined) | 0.317 |
| O=C(CN1CCCCCC1=O)OCc1ncc(-c2ccccc2)o1 | 0.469 |
| CC(=O)Nc1nc(SCc2cccc3ccccc23)n[nH]1 | -0.102 |
| CC(OC(=O)c1ccc(Cl)c(S(=O)(=O)N2CCc3ccccc32)c1)C(=O)Nc1ncc(Cl)cc1Cl (centres undefined) | -0.529 |
| COc1ccc(N2CSC3=C(C#N)C(c4ccc(OC)c(OC)c4)CC(=O)N3C2)c(OC)c1 (centres undefined) | -0.269 |
| C/C(=N\NC(=S)Nc1ccc(F)cc1)c1ccc2c(c1)OCCO2 | active: 6.87 |
| OCCOc1nnnn1-c1ccccc1 | 0.502 |
| COc1ccc(N2CCN(C3CC(=O)N(Cc4ccc(N5CCCC5=O)cc4)C3=O)CC2)cc1 (centres undefined) | -0.321 |
| CC(=O)OC(C(=O)NC1CCCCC1)c1cccc(C)c1 (centres undefined) | -0.192 |
| C(=N\N1CCN(Cc2ccccc2)CC1)/c1cccs1 | -0.298 |
| O=C(O)C1CCCN1C(=O)OCc1ccccc1 (centres undefined) | -0.414 |
| COc1ccccc1C(=O)NCC(=O)OC(C)C(=O)NC(=O)NC1CCCCC1 (centres undefined) | -0.434 |
| CN1CCC(=NNC(=O)CSCc2ccccc2)CC1 | -0.494 |
| CC1=C(C(=O)Nc2ccccc2)C(c2cccnc2)n2nc(-c3cccnc3)nc2N1 (centres undefined) | -0.446 |
| Cc1cc(NC(=O)CSc2cn(C)c3ccccc23)no1 | -0.147 |
| COc1ccc(/C=C2\SC(=O)NC2=S)cc1OC | 2.05 |

| SMILES | z-score |
| --- | --- |
| O=[N+]([O-])c1ccccc1/C=N/Nc1nnc(-c2ccccc2)c(-c2ccccc2)n1 | 0.316 |
| Cc1cc(-c2cccc([N+](=O)[O-])c2)nc2ccc3ccccc3c12 | -0.352 |
| CCn1cc(-c2nnnn2-c2ccc(Cl)cc2)c(=O)c2ccccc21 | 0.702 |
| CCC(C)c1ccc(Nc2ncccc2C#N)cc1 (centres undefined) | -0.15 |
| COC(=O)/C=C/C(=O)Nc1cccnc1 | -0.364 |
| Cc1ccc(NC(=O)CSc2nnc(-c3cccs3)o2)cc1S(=O)(=O)N1CCCCC1 | -0.0809 |
| N#CCCCN1C(=O)C(O)(CC(=O)c2ccc3c(c2)OCCO3)c2ccccc21 (centres undefined) | 0.506 |
| Cc1ccc(S(=O)(=O)N(C)CC(=O)O/N=C(\N)c2ccc([N+](=O)[O-])cc2)cc1 | -0.621 |
| CNS(=O)(=O)c1ccc(NCC2COc3ccccc3O2)c([N+](=O)[O-])c1 (centres undefined) | -0.487 |
| CCOC(=O)C1CCN(C(=O)Cc2c(F)cccc2Cl)CC1 | -0.334 |
| COc1cc2c(cc1OC)CN(C(=O)c1ccc(OC)c(S(=O)(=O)N3CCOCC3)c1)CC2 | -0.539 |
| CC(C)(C)C(=O)NNC(=O)CCCOc1ccc(Cl)cc1Cl | 0.321 |
| Cc1ccnc(NS(=O)(=O)c2cccs2)c1 | -0.961 |
| COc1ccc2c(OC)cc(=O)n(C)c2c1 | 0.0468 |
| CCC(c1nnnn1CCOC)N(Cc1ccc(C)cc1)Cc1cc2cc(OC)ccc2[nH]c1=O (centres undefined) | 0.378 |
| Cc1c(Cl)cccc1NC(=O)CCCCCN1C(=O)CCC1=O | 0.184 |
| COc1ccc(C(=O)/C=C/Nc2ccc([N+](=O)[O-])cc2C)c(OC)c1 | -0.189 |
| O=C(Nc1nc(-c2cccs2)cs1)c1cccc(S(=O)(=O)N2CCCCCC2)c1 | -1.41 |
| Cc1ccc(-n2c(C)c([N+](=O)[O-])c3ccc(O)c(CN(C)C)c32)cc1 | 0.912 |
| CCOC(=O)C1CCCN(C(=O)C2CCN(S(=O)(=O)c3cccs3)CC2)C1 (centres undefined) | 0.124 |
| Cc1ccc2nc3ccc(N4CCCC4)nn3c(=O)c2c1 | -0.187 |
| Cc1nn(-c2ccccc2)c(Cl)c1C(=O)OC(C)C(=O)NC(=O)NC1CCCCC1 (centres undefined) | -0.188 |

| SMILES | z-score |
| --- | --- |
| O=C(NN1C(=O)c2cc(Br)ccc2NC1c1cc(Br)cc(Br)c1O)c1ccncc1 (centres undefined) | -0.291 |
| CCC(C)NC(=O)c1cc2cc3ccc(OC)cc3nc2s1 (centres undefined) | -0.165 |
| O=C1CCCC(=O)N1c1ccc(N2CCN(c3ccccc3)CC2)c([N+](=O)[O-])c1 | 0.041 |
| COc1ccc(C2/C(=C(/O)c3ccccc3)C(=O)C(=O)N2C)cc1 (centres undefined) | -0.0789 |
| CCc1cccc(OCC(=O)Nc2ccc(S(=O)(=O)Nc3onc(C)c3C)cc2)c1 | -0.0589 |
| O=C(NNC(=O)[C@@H]1CCCC[C@@H]1C(=O)O)c1cccs1 | 0.534 |
| Cc1cccc(-c2nc(=S)c3c(n2Cc2ccco2)CCCC3)c1 | 0.581 |
| CC(C)(C#N)C(C)(C)c1nn[nH]n1 | 0.00414 |
| c1ccc(Nc2ccc3c4c(cccc24)CC3)cc1 | -0.0596 |
| Cc1ccc2nc(SCC(=O)c3c(C)[nH]c4ccccc34)[nH]c2c1 | -0.393 |
| COc1ccc(-n2c(CCc3ccccc3)nnc2SCC(=O)NCc2ccccc2)cc1 | -0.43 |
| CCSc1cc(N2CCCC2)nc(-c2ccc(F)cc2)n1 | 0.0348 |
| COc1cccc(C(=O)N2CCN=C2SCc2cccnc2)c1OC | 0.652 |
| CNc1ccc(/C=C2\COc3ccccc3C2=O)cc1[N+](=O)[O-] | 0.708 |
| COc1cccc(CN2CCN(CC(=O)Nc3ccccc3Cl)CC2)c1 | -0.367 |
| Cc1ccc(SC(C)C(=O)N2CCCC2)cc1 (centres undefined) | 0.69 |
| Cc1ccnc(Sc2ccc([N+](=O)[O-])cc2[N+](=O)[O-])n1 | -0.281 |
| Cc1ccc(NN2C(=O)C=C(c3ccc(Cl)cc3)C2=O)cc1 | -0.381 |
| Cc1cc(=O)oc2cc(OC(C)C(=O)Nc3nccs3)ccc12 (centres undefined) | -0.273 |
| COc1ccc(S(=O)(=O)CCC(=O)NCCc2ccc(C)cc2)cc1 | -0.152 |
| C=CCn1c(CCNC(=O)c2cccs2)nnc1SCC(=O)Nc1cccc(C(C)=O)c1 | -1.09 |
| N=c1ccn(Cc2cccc(Cl)c2)cc1 | 1.07 |

| SMILES | z-score |
| --- | --- |
| O=C(Nc1ccncc1)c1c(F)cccc1F | 0.441 |
| CCOc1ccc2[nH]c(C)c(CN3CCCCC3)c(=O)c2c1 | 0.668 |
| COCCOc1ccc(C(F)(F)F)cc1NC(=O)COC(=O)c1c(C)noc1C | -0.835 |
| O=C1OCC(CO)(CO)N=C1NNc1ccccc1Cl | -0.0533 |
| N#CC1=C(S)N(c2ccccc2)C(c2ccc(-c3cccc(Cl)c3)o2)NC1=O (centres undefined) | -0.292 |
| FC(F)Oc1cccc2cccnc12 | 0.447 |
| COc1cccc(NC(=O)Cn2c(SCC(=O)N3CCOCC3)nc3ccccc32)c1 | 0.619 |
| COc1ccc(-c2nnc3sc(C(C)N4C(=O)c5ccccc5C4=O)nn23)cc1 (centres undefined) | -0.348 |
| Cc1cc(C)cc(NC(=O)c2oc3ccccc3c2COc2ccccc2)c1 | -0.32 |
| O=C(CN1C(=O)c2cccc3cccc(c23)C1=O)N1CCCCC1 | -0.0957 |
| COc1ccc(Cl)cc1NC(=O)CSc1nc(N2CCCCC2)nc(N2CCCCC2)n1 | 0.133 |
| CCOC(=O)N1CCC(NC(=O)c2csc3c2CCCC3)CC1 | -0.438 |
| Cc1ccc(NC(=O)CN2C(=O)N/C(=C/c3ccco3)C2=O)cc1 | -0.182 |
| O=C(Nc1cccc(C(F)(F)F)c1)c1cccnc1N1CCN(CCO)CC1 | 0.082 |
| Cc1nn(Cc2ccc(Cl)cc2)c(C)c1NC(=O)Cn1nc([N+](=O)[O-])c(Cl)c1C | 0.387 |
| CN(C)CCOC(=O)C1(c2ccccc2)CCCC1 | 0.259 |
| COC(=O)CCN(C(=O)c1ccc(OC(C)=O)cc1)c1ccccn1 | -0.331 |
| Cc1cccc(OCCNC(=O)c2cncc(Br)c2)c1 | -0.527 |
| COc1cccc(C(=O)Nc2cccc(C(=O)NC3=NN(c4c(Cl)cc(Cl)cc4Cl)C(=O)C3)c2)c1 | -0.318 |
| CCOc1ccc(NC(=O)N(CC(C)C)CC(C)C)cc1 | -0.0312 |
| Cc1cc(C)c2cc(CN(Cc3ccc4c(c3)OCO4)Cc3nnnn3Cc3ccco3)c(=O)[nH]c2c1 | 0.45 |
| Cc1ccc(C2Nc3cccc4cccc(c34)N2)s1 | -0.35 |

| SMILES | z-score |
| --- | --- |
| O=c1c2ccc(Cl)cc2[nH]c(=S)n1Cc1cccnc1 | 2.08 |
| Cc1ccc(Cl)cc1N1CCN(C(=O)CSc2ccsc2[N+](=O)[O-])CC1 | -0.239 |
| Cc1occc1C(=O)NCCCc1ccccc1 | -0.0626 |
| Cc1cccc(Nc2nc(N3CCN(C)CC3)nc(N)c2[N+](=O)[O-])c1 | -0.951 |
| O=C(C1=C(O)C(=O)N(CCCN2CCOCC2)C1c1ccncc1)c1cc2ccccc2o1 (centres undefined) | -0.0427 |
| O=c1ccccn1CCOc1ccccc1Cl | -0.533 |
| CCOC(=O)c1ccc(NC(=O)CC2OCCN(CC)C2=O)cc1 (centres undefined) | 0.162 |
| Cn1c(=O)oc2cc(S(=O)(=O)N3CCCc4ccccc43)ccc21 | -0.344 |
| CS(=O)(=O)N1CCN(c2ccccc2NC(=O)c2ccc3ccccc3c2)CC1 | -0.833 |
| CCN(CC)S(=O)(=O)c1ccc(/C=C/C(=O)Nc2ccc(F)c(F)c2F)cc1 | -0.0872 |
| COc1cc(/C=N/Nc2ccc([N+](=O)[O-])cc2S(=O)(=O)N2CCOCC2)cc(OC)c1OC | -0.0588 |
| CN1CCN(C2=CC(=O)OC23CCCCC3)CC1 | 0.371 |
| c1ccc2c(Cn3nnc4ccccc43)cccc2c1 | 1.12 |
| COc1ccc(Cc2nnc(NC(=O)c3ccc(Cl)c([N+](=O)[O-])c3)s2)cc1 | -0.0406 |
| CCOC(=O)C1=NN(c2ccc([N+](=O)[O-])cc2)CC1C(=O)OC (centres undefined) | -0.173 |
| CC(=O)Cc1nsc(NC(=O)c2ccco2)n1 | -0.0674 |
| COC(=O)CN(c1cccc(C(C)=O)c1)S(C)(=O)=O | 0.274 |
| CCOC(=O)c1sc(NC(=O)CSc2nc(C)cc(C)n2)c(C#N)c1C | -0.474 |
| O=C(NCc1ccc2c(c1)OCO2)c1ccc(S(=O)(=O)NCC2CCCO2)cc1 (centres undefined) | -0.139 |
| Cn1c(SCCCC(=O)c2ccc(F)cc2)nnc1-c1ccncc1 | -0.282 |
| Cc1ccc(C(=O)N(CN2CCCC2=O)c2ccccc2)cc1C | -0.166 |
